Reference: PubChem BioAssay AID686979 (National Center for Advancing Translational Sciences (NCATS), 2013)
Where “and” joins values, the source holds several entries; their conditions need not be identical. Equal values may be shown once. Among all 420,000 compounds or so, about 50,000 (12%) were called active. Inconclusive means that the source gave no clear call. Such entries were picked first, then a sample of the others. Calls follow the shape of the dose curve; as a rule, active = well fitted inhibition curve with a large enough effect; inconclusive = small, poorly fitted or top-dose-only effect; inactive = flat fitted curve, though single readings scatter. A potency beside an inconclusive call is a rough fit, not a confirmed value.

test: qHTS for Inhibitors of human tyrosyl-DNA phosphodiesterase 1 (TDP1): qHTS in cells in presence of CPT; conditions: chicken DT40 Tdp1-/-;hTDP1 cells + 20 nM CPT, ATP luminescence, 48 h; activity change, negative = growth inhibition: at 46.2 µM (top of the series); also: nearly all actives have a fitted effect of over 55% in size
Method in brief: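 Chicken DT40 Tdp1-/- cells complemented with human TDP1, 400 cells/well, exposed to compounds plus 20 nM camptothecin for at least 48 h at 37 C; viability read as ATP content by CellTiter-Glo luminescence.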
% is scaled to controls: 0 for no effect and ±100 for the full control effect; potency is read from the fitted curve at half-maximal effect; tags tell the direction and shape of the fitted curve.

Question: Which Potency does the source give for `CCNC(=O)/C(C#N)=C/c1c(N(Cc2ccccc2)Cc2ccccc2)nc2ccccn2c1=O` here?
Answer: Its Potency is inconclusive: 32.6 µM [inhibitor, partial curve, poor fit].

Question: Which Potency does the source give for `COc1c(O)c(O)c2oc(-c3ccccc3)cc(=O)c2c1OC` here?
Answer: The Potency was inconclusive: 29.1 µM [inhibitor, single point].

Question: Which Potency does the source give for `CCOc1ccc(C(=O)c2cc([N+](=O)[O-])ccc2N2CCOCC2)cc1` here?
Answer: The Potency was active: 0.13 µM.

Question: For `CC(OC(=O)CN1C(=O)C2C3C=CC(C4CC34)C2C1=O)C(=O)c1ccccc1` (centres undefined), which Potency is on record?
Answer: Its Potency is “inactive”.

Question: Which Potency does the source give for `CCOC(=O)C1(CCCc2ccccc2)CCN(C(=O)c2cncs2)CC1` here?
Answer: Its Potency is active: 18.4 µM.

Question: Which activity change, negative = growth inhibition does the source give for `Cc1c(Cl)cccc1-n1ccnc1SCC(=O)O` here?
Answer: The activity change, negative = growth inhibition was inconclusive: -30.9% [inhibitor].

Question: With `COc1cc(SC)ccc1C(=O)NCCOc1ccc(F)cc1` as the compound, how does the Potency read?
Answer: Its Potency is inconclusive: 29.1 µM [inhibitor, single point].

Question: For `COc1ccc(C(C(=O)NC2CCCCC2)N(Cc2cccs2)C(=O)Cc2c[nH]c3ccccc23)cc1OC` (centres undefined), which Potency is on record?
Answer: The Potency was active: 13 µM.

Question: With `O=C(Nc1ccc(F)cc1F)c1cc(-c2ccco2)nc2ccccc12` as the compound, how does the Potency read?
Answer: The Potency was inconclusive: 25.9 µM [inhibitor, partial curve, poor fit].

Question: With `COCCCNC(=O)C(C)n1c2ccccc2c2cnn(C)c(=O)c21` (centres undefined) as the compound, how does the Potency read?
Answer: The Potency was “inactive”.

Question: For `CC(C)C(=O)NC(Nc1cc(C(F)(F)F)ccc1Cl)C(Cl)(Cl)Cl` (centres undefined), which Potency is on record?
Answer: Its Potency is inconclusive: 18.4 µM [inhibitor, single point].

Question: With `CCOC(=O)C1(C)CCN1C(=O)c1ccc(N(C)C)cc1` (centres undefined) as the compound, how does the Potency read?
Answer: The Potency was “inactive”.

Question: Which Potency does the source give for `CCOc1ccc(NC(=O)CN(C)C(=O)c2ccc3[nH]c4c(c3c2)CC(C)CC4)cc1OCC` (centres undefined) here?
Answer: The Potency was inconclusive: 29.1 µM [inhibitor, single point].

Question: Which activity change, negative = growth inhibition does the source give for `CCC1Oc2ccc(C)cc2N(CC(=O)NCCN2CCCCCC2)C1=O` (centres undefined) here?
Answer: Its activity change, negative = growth inhibition is inconclusive: -33.8% [inhibitor].

Question: With `CCC1CN(C(=O)NCc2ccccc2)c2cc(C)ccc2O1` (centres undefined) as the compound, how does the Potency read?
Answer: Its Potency is “inactive and inconclusive: 29.1 µM [inhibitor, single point]”.

Question: For `CN1/C(=C\C(=O)CSc2nnc(NCc3ccccc3)s2)C(C)(C)c2ccccc21`, which Potency is on record?
Answer: Its Potency is active: 14.6 µM.

Question: With `CCCCOC(=O)C1CCCC(C(=O)OCCCC)N1` (centres undefined) as the compound, how does the Potency read?
Answer: The Potency was “inactive”.

Question: For `N#Cc1nc(COc2ccc(F)cc2)oc1N1CCN(Cc2ccccc2)CC1`, which Potency is on record?
Answer: The Potency was inconclusive: 25.9 µM [inhibitor, single point].

Question: Which Potency does the source give for `COc1ccc(CCNC(=O)C(CCC(N)=O)NS(=O)(=O)c2ccc(Cl)cc2)cc1OC` (centres undefined) here?
Answer: Its Potency is “inactive”.

Question: Which Potency does the source give for `O=c1oc2ccccc2cc1-c1csc(NN=C2CCCCC2)n1` here?
Answer: The Potency was inconclusive: 13 µM [inhibitor, partial curve].

Question: With `Cn1nnnc1SCC(=O)N1c2ccccc2Sc2ccc(Cl)cc21` as the compound, how does the Potency read?
Answer: The Potency was inconclusive: 25.9 µM [inhibitor, single point].

Question: With `c1ccc(-c2nc(N3CCN(c4ccccc4)CC3)nc(-n3ccnc3)n2)cc1` as the compound, how does the Potency read?
Answer: The Potency was inconclusive: 16.4 µM [inhibitor, single point].

Question: Which Potency does the source give for `Cc1cc(OC(F)F)ccc1NC(=O)Nc1ccc([N+](=O)[O-])cc1` here?
Answer: The Potency was active: 14.6 µM.

Question: For `N#Cc1c(NC(=O)CCCl)sc2c1CCCCC2`, which Potency is on record?
Answer: Its Potency is active: 18.4 µM.

Question: For `O=C1OC(c2ccccc2)(c2ccc(O)cc2)c2ccccc21` (centres undefined), which Potency is on record?
Answer: The Potency was inconclusive: 29.1 µM [inhibitor, single point].

Question: Which Potency does the source give for `CC1Sc2ccc(S(=O)(=O)N3CCC(C(=O)NCc4ccco4)CC3)cc2NC1=O` (centres undefined) here?
Answer: Its Potency is inconclusive: 29.1 µM [inhibitor, single point].

Question: Which Potency does the source give for `O=C(CC1(O)C(=O)N(Cc2cccc3ccccc23)c2ccccc21)c1cccnc1` (centres undefined) here?
Answer: The Potency was active: 0.92 µM.

Question: Which Potency does the source give for `CN(Cc1ccccc1)C(=O)Cn1nnc(-c2ccccc2)c1COc1ccccc1` here?
Answer: Its Potency is inconclusive: 20.6 µM [inhibitor, single point].

Question: For `Cc1cccc(C)c1NC(=O)CN(Cc1ccc(Br)cc1)S(=O)(=O)c1ccccc1`, which Potency is on record?
Answer: The Potency was inconclusive: 29.1 µM [inhibitor, single point].

Question: For `CCCSc1nc(-c2ccc(OC)cc2)cc(-c2ccccc2OC)c1C#N`, which Potency is on record?
Answer: Its Potency is inconclusive: 29.1 µM [inhibitor, single point].

Question: For `CCCNc1ccc(S(=O)(=O)N(CC)CC)cn1`, which Potency is on record?
Answer: The Potency was active: 16.4 µM.

Question: Which Potency does the source give for `O=C1c2oc3ccccc3c(=O)c2C(c2ccc(O)cc2)N1c1nccs1` (centres undefined) here?
Answer: Its Potency is “inactive”.

Question: For `O=C(NCC1CCCO1)C(c1cccs1)N(Cc1cccs1)C(=O)Cn1nnc(-c2cccs2)n1` (centres undefined), which Potency is on record?
Answer: Its Potency is active: 16.4 µM.

Question: Which Potency does the source give for `CN(C)c1ccc(C(CNC(=O)c2cccc(C(F)(F)F)c2)N2CCCC2)cc1` (centres undefined) here?
Answer: Its Potency is active: 14.6 µM.

Question: With `O=C(Nc1ccccc1)c1ccc(S(=O)(=O)N2CCCCC2)cc1` as the compound, how does the Potency read?
Answer: Its Potency is “inactive”.

Question: For `Cc1cccc(NC(=O)COc2ccc3oc4c(c3c2)CCCC4)n1`, which activity change, negative = growth inhibition is on record?
Answer: The activity change, negative = growth inhibition was inconclusive: -36.2% [inhibitor].

Question: Which Potency does the source give for `O=C(CCC1CCCN(C(=O)c2ccncc2)C1)NCc1ccc(F)c(F)c1` (centres undefined) here?
Answer: The Potency was “inactive”.

Question: Which activity change, negative = growth inhibition does the source give for `O=C(OCc1nnc(-c2ccccc2)o1)c1ccc([N+](=O)[O-])o1` here?
Answer: The activity change, negative = growth inhibition was inconclusive: -32.2% [inhibitor].

Question: With `C=C1CC[C@@H]2[C@](C)(CO)[C@H](O)CC[C@@]2(C)[C@@H]1C/C=C1/C(=O)OCC1O` (some centres undefined) as the compound, how does the Potency read?
Answer: The Potency was active: 14.6 µM.

Question: Which Potency does the source give for `Cc1ccc([N+](=O)[O-])cc1NC(=O)CSc1n[nH]c(-c2cccnc2)n1` here?
Answer: The Potency was “inactive”.

Question: With `Cc1occc1C(=O)NCc1nc(-c2ccccc2)no1` as the compound, how does the Potency read?
Answer: Its Potency is “inactive”.

Question: With `CCCCCc1c(-c2ccc(F)cc2)ncn1CCc1ccccc1OC` as the compound, how does the Potency read?
Answer: The Potency was active: 9.2 µM.

Question: For `CCCCn1cnc2c(SCc3ccc([N+](=O)[O-])cc3)nc(N)nc21`, which Potency is on record?
Answer: Its Potency is active: 14.6 µM.

Question: Which Potency does the source give for `Cn1c(=O)[nH]c(=O)c2c1nc(CN1CCN(Cc3ccccc3)CC1)n2CC(N)=O` here?
Answer: Its Potency is “inactive”.

Question: Which activity change, negative = growth inhibition does the source give for `CCOC(=O)c1cnc(-n2[nH]c(C)c(Cc3ccccc3)c2=O)[nH]c1=O` here?
Answer: The activity change, negative = growth inhibition was inconclusive: -21.8% [inhibitor].

Question: For `CCCN1C(=O)/C(=C/c2ccc3c(c2)OCO3)NC1=S`, which Potency is on record?
Answer: The Potency was “inactive”.

Question: With `COCC(C)N=C1NN=C(c2cc(C)n(Cc3ccccc3Cl)c2C)CS1` (centres undefined) as the compound, how does the Potency read?
Answer: The Potency was active: 13 µM.

Question: For `CCOc1ccc(NC(=O)C2CCN(S(=O)(=O)c3c(C)noc3/C=C/c3c(C)cc(C)cc3C)CC2)cc1`, which Potency is on record?
Answer: The Potency was active: 9.2 µM.

Question: For `COc1ccc(NC(=O)c2cc(S(=O)(=O)N(Cc3ccccc3)c3ccccc3)ccc2Cl)cn1`, which Potency is on record?
Answer: Its Potency is “inactive”.
